Measured values published in PubChem BioAssay AID1768 (National Center for Advancing Translational Sciences (NCATS), 2009).
“And” between values parts separate entries of the source, which are not always exact repeats. Equal entries are not always repeated. About 620 (0.23%) of roughly 270,000 compounds were called active. This list was built around the results that the source calls inconclusive (neither active nor inactive); the mix of calls is not that of the screen. The call rests on the fitted dose curve; in most records, active means well fitted inhibition curve with a large enough effect in the polarisation, with a control signal flat (not every such curve was filed as active); inconclusive means small, poorly fitted or top-dose-only effect, or effect the other way, or a change in a side signal; inactive means no such curve, though single readings can be large or run the other way; the % refers to the polarisation. Where the call is inconclusive, the potency comes from a doubtful curve fit. “Side channel” marks fits to a control or component signal instead of the main read-out.

Target: Menin (Homo sapiens) (UniProt O00255)
Assay: qHTS Assay for Inhibitors Targeting the Menin-MLL Interaction in MLL Related Leukemias: Competition With Texas Red Labeled MLL-derived Mutant Peptide; on FP activity change, negative = inhibition: % of control where 0% means no effect
Conditions: fluorescence polarization; series mostly up to 61.6 µM; FP activity change, negative = inhibition: at the top concentration
Potency means the concentration at half of the fitted maximal effect; tags describe the fitted curve by direction and shape or compound fluorescence and quenching.

UniProt O00255, sequence (O00255 whole entry, looked up): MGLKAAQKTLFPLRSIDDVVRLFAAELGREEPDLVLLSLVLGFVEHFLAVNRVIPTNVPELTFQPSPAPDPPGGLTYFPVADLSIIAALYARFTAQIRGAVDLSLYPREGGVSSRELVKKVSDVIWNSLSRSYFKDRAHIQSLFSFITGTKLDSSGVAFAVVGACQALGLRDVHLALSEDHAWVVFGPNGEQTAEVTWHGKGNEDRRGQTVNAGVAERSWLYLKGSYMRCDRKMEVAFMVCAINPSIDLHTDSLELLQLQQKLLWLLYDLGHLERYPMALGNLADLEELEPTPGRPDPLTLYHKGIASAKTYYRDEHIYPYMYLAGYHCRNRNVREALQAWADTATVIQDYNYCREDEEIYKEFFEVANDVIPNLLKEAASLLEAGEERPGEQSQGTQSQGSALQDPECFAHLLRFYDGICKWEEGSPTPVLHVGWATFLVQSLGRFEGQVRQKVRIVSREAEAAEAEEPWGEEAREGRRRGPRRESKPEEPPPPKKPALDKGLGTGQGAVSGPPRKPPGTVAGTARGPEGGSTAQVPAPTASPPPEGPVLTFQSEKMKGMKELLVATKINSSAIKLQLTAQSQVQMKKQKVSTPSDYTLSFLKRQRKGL

| Structure (SMILES) | Potency | FP activity change, negative = inhibition |
| --- | --- | --- |
| COC(=O)N1CCN(C(=O)Cc2ccc(Cl)c(Cl)c2)C(CN2CCCC2)C1 (configuration not stated) | inconclusive: 3.16 µM [inhibitor, partial curve] | – |
| CC[N+](C)(CC)CCC[n+]1c(-c2ccccc2)c2cc(N)ccc2c2ccc(N)cc21 | active: 12.6 µM | – |
| O=C(O)c1ccccc1Nc1cccc(C(F)(F)F)c1 | inconclusive: 12.6 µM [quencher, side channel, partial curve] and inconclusive: 28.2 µM [quencher, side channel, partial curve] and inconclusive: 20 µM [quencher, side channel, single point] | – |
| O=C(CNC(=O)OCc1ccccc1)Nc1ccc(Br)cc1C(=O)c1ccccc1 | – | inactive: -23% |
| CCCCCn1c(=O)c(C(=O)Nc2cccc(C)n2)c(O)c2ccccc21 | inconclusive: 3.16 µM [inhibitor, full curve, poor fit] | – |
| O=c1[nH]c(=S)[nH]c(O)c1N=Nc1ccc(S(=O)(=O)N2CCc3ccccc32)cc1 | inconclusive: 14.1 µM [quencher, side channel, partial curve] | – |
| Clc1ccc(CO[C@@H](Cn2ccnc2)c2ccc(Cl)cc2Cl)cc1 | inconclusive: 17.8 µM [fluorescent, side channel, partial curve, poor fit] | – |
| CCOC(=O)N1CCCN(/[N+]([O-])=N/Oc2ccc([N+](=O)[O-])cc2[N+](=O)[O-])CC1 | inconclusive: 15.8 µM [quencher, side channel, partial curve] | – |
| CCCCOP(=O)(OCCCC)C(Nc1ccc(C(=O)OCC)cc1)c1ccncc1 (configuration not stated) | active: 3.16 µM | – |
| O=C(Nc1nc(-c2ccccc2)c(-c2ccccc2)s1)c1ccc(S(=O)(=O)N(CCCl)CCCl)cc1 | inconclusive: 3.55 µM [inhibitor, full curve] | – |
| COc1cc(C=C2C(=O)NC(=O)NC2=O)ccc1OS(=O)(=O)c1ccccc1[N+](=O)[O-] | inconclusive: 28.2 µM [quencher, side channel, partial curve] | – |
| COc1ccc(CNCCc2ccc3c(c2)OCO3)c(OC)c1OC | inconclusive: 39.8 µM [inhibitor, single point] | – |
| CCOC(=O)c1ccc(Nc2nc(C)cc(C)n2)cc1 | inconclusive: 22.4 µM [fluorescent, side channel, partial curve] | – |
| O=C1NC(=S)N(c2ccc(F)cc2)C(=O)/C1=C\c1ccoc1 | inconclusive: 39.8 µM [fluorescent, side channel, single point] | – |
| CN[C@@H](C)[C@H](O)c1ccccc1 | – | inactive: 14.1% |
| O=C(N/N=C/c1c(O)n(CCc2ccc(F)cc2)c(=O)[nH]c1=O)c1ccncc1 | inconclusive: 39.8 µM [quencher, side channel, single point] | – |
| Cc1nc2cc(C(=O)N3CCC4(CC3)OCCO4)ccc2n1-c1ccc(Br)cc1 | inconclusive: 25.1 µM [fluorescent, side channel, single point] | – |
| S=C=Nc1cccc(C2(N3CCCCC3)CCCCC2)c1 | inconclusive: 31.6 µM [inhibitor, partial curve] | – |
| FC(F)(F)Oc1ccc(C2NCc3ccccc3-n3cccc32)cc1 (configuration not stated) | inconclusive: 17.8 µM [fluorescent, side channel, partial curve] | – |

| Structure (SMILES) | Potency | FP activity change, negative = inhibition |
| --- | --- | --- |
| O=C1C=CC[C@@H]2[C@H]3CCCN4CCC[C@@H](CN12)[C@@H]34 | – | inactive: -1.04% |
| O=C(CN1CC=C(c2ccccc2)CC1)NC(=O)NCc1ccccc1 | inconclusive: 10 µM [fluorescent, side channel, partial curve] | – |
| CC(Cc1ccccc1)NC(=O)Cc1ccc([N+](=O)[O-])cc1 (configuration not stated) | inconclusive: 5.01 µM [inhibitor, single point] | – |
| O=c1cc(-c2ccc(O)c(O)c2)oc2c(C3O[C@H](CO)[C@@H](O)[C@H](O)[C@H]3O)c(O)cc(O)c12 (some centres not stated) | inconclusive: 31.6 µM [quencher, side channel, single point] | – |
| COc1cc2[nH]c(=O)n(-c3ccccc3)c(=O)c2cc1OC | – | inactive: 20% |
| CCCCC/C=C\C/C=C\C/C=C\C/C=C\CCCC(=O)NCCCl | – | inactive: -29.4% |
| C=C1CC[C@H](O)C/C1=C/C=C1\CCC[C@]2(C)[C@H]1CC[C@H]2[C@@H](C)CCCC(C)C | inconclusive: 8.91 µM [inhibitor, partial curve, poor fit] | – |
| CCN1CCN(Cc2nc3ccc([N+](=O)[O-])cc3c(=O)n2-c2ccccc2F)CC1 | active: 10 µM | – |
| Fc1ccc(C(OCCN2CCN(C/C=C\c3ccccc3)CC2)c2ccc(F)cc2)cc1 | inconclusive: 14.1 µM [fluorescent, side channel, partial curve] | – |
| O=C1CN=C(c2ccc[nH]2)c2cc(Cl)ccc2N1 | inconclusive: 39.8 µM [inhibitor, single point] | – |
| O=c1[nH]c(O)c(N=Nc2ccc([N+](=O)[O-])cc2)c(=O)[nH]1 | inconclusive: 14.1 µM [quencher, side channel, partial curve] | – |
| CC1(C)C(=O)C=C[C@@]2(C)C1CC(O)[C@]1(C)C2CC[C@@]2(C)C(c3ccoc3)OC(=O)C3O[C@]312 (some centres not stated) | inconclusive: 3.98 µM [fluorescent, side channel, full curve] | – |
| Nc1ncnc2c1ncn2[C@@H]1O[C@H](COP(=O)(O)OP(=O)(O)OP(=O)(O)O)[C@H]2OC3(O[C@H]21)C([N+](=O)[O-])=CC(=[N+]([O-])[O-])C=C3[N+](=O)[O-] (some centres not stated) | – | inactive: 18.2% |
| N#CC(C#N)=NNc1ccc(S(=O)(=O)N2CCCC2)cc1 | inconclusive: 14.1 µM [quencher, side channel, partial curve] | – |
| O=C(COC(=O)c1ccc(O)cc1)Nc1ccc(Cl)cc1C(=O)c1ccccc1 | inconclusive: 15.8 µM [quencher, side channel, partial curve] | – |
| CCCCCSc1cc(OC)c(CCN)cc1OC | – | inactive: -22.8% |
| CN1C(=O)NC(=O)/C(=C\c2ccc([N+](=O)[O-])o2)C1=O | inconclusive: 31.6 µM [fluorescent, side channel, partial curve] | – |
| O=c1cccc2n1C[C@@H]1C[C@@H]2CN(CC(O)c2ccc([N+](=O)[O-])cc2)C1 (some centres not stated) | inconclusive: 39.8 µM [inhibitor, single point] | – |
| COc1ccc(CC(=O)Nc2cc(Cl)ccc2C(=O)O)cc1 | inconclusive: 28.2 µM [quencher, side channel, single point] | – |

| Structure (SMILES) | Potency | FP activity change, negative = inhibition |
| --- | --- | --- |
| CCCCCCn1c(=O)c(C(=O)Nc2ncccc2O)c(O)c2ccccc21 | inconclusive: 28.2 µM [quencher, side channel, single point] | – |
| COc1ccc(C2C(C(=O)N3CCC4(CC3)OCCO4)CC(=O)N2c2ccc(OC)cc2)cc1 (configuration not stated) | inconclusive: 20 µM [inhibitor, partial curve] | – |
| Nc1c(C(=O)NCc2ccco2)c2nc3ccccc3nc2n1CCN1CCCCC1 | inconclusive: 14.1 µM [fluorescent, side channel, single point] | – |
| CC(C)OC(=O)c1c(N)n(CC2CCCO2)c2nc3ccccc3nc12 (configuration not stated) | – | inactive: -16.4% |
| Cc1ccsc1/C=C1\C(=O)NC(=S)N(C)C1=O | inconclusive: 14.1 µM [quencher, side channel, partial curve] | – |
| C[C@@H]1O[C@H](C[N+](C)(C)C)C[C@H]1O | – | inactive: -4.8% |
| COc1ccc(NP(=O)(Oc2ccc(Cl)cc2)Oc2ccc(Cl)cc2)cc1OC | – | inactive: 7.14% |
| Cc1cc(N(CCCl)CCCl)ccc1/C=N/NC(=O)c1ccco1 | inconclusive: 5.01 µM [quencher, side channel, full curve, poor fit] | – |
| CC1COC2=C1C(=O)C(=O)c1c2ccc2c1CCCC2(C)C (configuration not stated) | inconclusive: 20 µM [quencher, side channel, partial curve] and inconclusive: 17.8 µM [quencher, side channel, partial curve] | – |
| O=c1cc(CN2CCNCC2)nc2sccn12 | inconclusive: 39.8 µM [quencher, side channel, single point] | – |
| O=C(N/N=C/c1c(O)n(Cc2ccccc2)c(=O)[nH]c1=O)c1ccccc1 | inconclusive: 10 µM [quencher, side channel, partial curve] | – |
| CN1C(=O)C(=Cc2ccc(N3CCCCC3)o2)C(=O)N(C)C1=S | active: 25.1 µM | – |
| [Cl-].[Cl-].[Hg+2] | – | inactive: -10.3% |
| O=C(NC(Cc1ccccc1)C(=O)N1CCC2(CC1)OCCO2)C1CCCCC1 (configuration not stated) | inconclusive: 1.41 µM [inhibitor, partial curve] | – |
| Cc1ccc(N2C(=O)NC(=O)/C(=C\c3cc(C)n(-c4ccc(C(=O)O)cc4)c3C)C2=O)cc1 | – | inactive: 19.1% |
| COc1cc(/C=C/c2nc3ccccc3c(=O)n2-c2ccc(O)cc2)ccc1O | inconclusive: 14.1 µM [quencher, side channel, partial curve] | – |
| CC(C)C[C@H]1C(=O)N2CCCC2[C@]2(O)O[C@](NC(=O)[C@@H]3C=C4c5cccc6[nH]cc(c56)CC4N(C)C3)(C(C)C)C(=O)N12 (some centres not stated) | inconclusive: 10 µM [inhibitor, partial curve, poor fit] | – |
| O=C(CCN1CCCCC1)NCC(=O)Nc1ccc(Br)cc1C(=O)c1ccccc1 | inconclusive: 1.41 µM [inhibitor, full curve] | – |
| COc1ccc(N2C(=O)/C(=C/C=C/c3ccccc3[N+](=O)[O-])C(=O)NC2=S)cc1 | inconclusive: 14.1 µM [quencher, side channel, partial curve] | – |
